Reference: ChEMBL document CHEMBL4513135, “CO-ADD screening of IQOG CSIS (Spain) compounds”
This is one part of the list. Measured potencies and affinities stand elsewhere.

What follows are compounds tested on Acinetobacter baumannii. Conditions: Concentration 32 ug.mL-1; ASSAY_TEST Inhibition of Bacterial Growth; detection method Absorption (OD600); MEDIA CAMHB; plate type 384well; NBS; CORNING #3640; time 18 hr.

SMILES	Inhibition [%]
N#C/C(=C\c1ccccc1)C(=O)c1ccccc1	1.46
NC(=O)c1cc2cc(OCc3ccccc3)ccc2[nH]1	12.15
Nc1c2c(nc3c1c1ccccc1n3Cc1ccccc1)CCCC2	8.02
Nc1c2c(nc3c1CC(c1c(Cl)cccc1Cl)C(=O)N3)CCCC2 (stereo not drawn)	-12.75
COc1nc2nc3c(c(N)c2cc1C#N)CCCC3	14.41
Cn1cc(C(=O)NN)c2ccccc21	7.79
O=C(COc1ccc2ccccc2c1)NNCc1c[nH]c2ccccc12	1.05
Nc1c2c(nc3c1C(c1ccccc1)c1ccc4ccccc4c1O3)CCCC2 (stereo not drawn)	-23.73
CC1Cc2ccccc2N1/N=C/c1ccccc1 (stereo not drawn)	-9.9
O=C(NCc1ccccc1)c1cc2ccccc2[nH]1	5.8
C#CCNc1nc(NCCCC2CCN(Cc3ccccc3)CC2)c(C#N)cc1C#N.Cl	14.78
Cl.NC1(C(=O)O)CC1c1ccccc1 (stereo not drawn)	0.02
CN(Cc1cn(Cc2ccccc2)nn1)Cc1cc2cc(OCCCC3CCN(Cc4ccccc4)CC3)ccc2n1C	0.85
N#Cc1cc2c(N)c3c(nc2nc1N1CCCCC1)CCCC3	27.68
CCOC(=O)c1cc2cc(OC(=O)Oc3ccc([N+](=O)[O-])cc3)ccc2[nH]1	8.04
COc1ccc(C2c3c(ccc4ccccc34)OC(=NBr)C2(Br)C#N)cc1OC (stereo not drawn)	-8.68
O[C@H]1CC[C@H](NCc2ccccc2)CC1	16.65
CCOc1nc2nc(C)c(C=C3CCN(Cc4ccccc4)CC3)cc2c(-c2ccccc2)c1C#N	-1.33
COc1ccc(-c2cc(-c3ccccc3)c(C#N)c(N)n2)cc1	-6.82
O=C(N/N=C/Cc1ccccc1)c1cc2ccccc2n1Cc1ccccc1	0.71
CNC(=O)c1cc2cc(OC)ccc2[nH]1	1.46
N#CC1(Br)C(=NBr)Oc2c(ccc3ccccc23)C1c1cccc([N+](=O)[O-])c1 (stereo not drawn)	-0.35
COc1ccccc1[C@H]1c2c(ccc3ccccc23)O/C(=N\Br)[C@@]1(Br)C#N	0.87
Nc1ccccc1C(=O)N/N=C/c1c[nH]c2ccccc12	-9.81
C#CCNc1nc(NC2CCN(Cc3ccccc3)CC2)c(C#N)c(-c2ccccc2)c1C#N	-6.34
COc1ccc(C2c3c(nc4c(c3N)CCCC4)Oc3ccc4ccccc4c32)cc1 (stereo not drawn)	-20.83

SMILES	Inhibition [%]
CCOC(=O)C1=C(C)OC(N)=C(C#N)C1c1ccncc1 (stereo not drawn)	9.18
CCOC(N)=CC#N	7.15
COc1ccc(C2C(C#N)=C(N)Oc3[nH]nc(C)c32)cc1 (stereo not drawn)	-4.21
N#CC1(Br)C(=NBr)Oc2ccc3ccccc3c2C1c1cccc([N+](=O)[O-])c1 (stereo not drawn)	7.49
Cn1c(C(=O)O)cc2ccccc21	-3.44
Cc1nc(Nc2ccccc2)c2c(C)nn(-c3ccccc3)c2n1	7.57
CN(C)c1nc(N)c(C#N)cc1C#N	-1.69
Nc1nc(N)c(C=O)c(-c2ccccc2)c1C=O	5.37
Nc1c2c(nc3c1C(c1c(Cl)cccc1Cl)c1ccc4ccccc4c1O3)CCCC2 (stereo not drawn)	-3.08
C#CCN(C)Cc1cc2cc(OCOc3ccc4c(c3)cc(CN(C)CC#C)n4C)ccc2n1C	4.72
C=CCNc1nc(N)c(C#N)cc1C#N	7.75
Cl.Cl.Cn1c(CNc2ccccc2)cc2cc(OCCCC3CCN(Cc4ccccc4)CC3)ccc21	8.45
COc1ccc(CNNC(=O)c2cc3ccccc3[nH]2)cc1O	0.94
CCOc1nc2nc(CCc3ccccc3)ccc2c(-c2ccccc2)c1C#N	8.83
COc1cc(C2C(C#N)=C(N)Oc3c2ccc2ccccc32)ccc1O (stereo not drawn)	0.3
CSC1=NC(=Cc2cn(C(c3ccccc3)(c3ccccc3)c3ccccc3)c3ccccc23)C(=O)N1C	5.84
CC(C)CC(C)NNC(=O)c1cc2ccccc2[nH]1 (stereo not drawn)	-10.74
CC(C)C(=O)N/N=C/c1c[nH]c2ccccc12	3.44
Cc1ccc(C2c3ccc4ccccc4c3Oc3nc4c(c(N)c32)CCCC4)cc1 (stereo not drawn)	-13.4
N#Cc1cc(C#N)c(NCCC2CCN(Cc3ccccc3)CC2)nc1N	-4.7
C#CCNc1nc(N)c(C#N)c(-c2ccccc2)c1C#N	6.11
CCOC(=O)c1c(C)[nH]c(=O)c(C#N)c1-c1ccccc1	7.57
Cc1ccc(-c2c(C#N)c(N)nc3c2S(=O)(=O)OC3(C)C)cc1	-3.73
N#C[C@]1(Br)C(=N)Oc2ccc3ccccc3c2[C@@H]1c1ccc([N+](=O)[O-])cc1	-2.93
Cl.OCC1CCN(Cc2ccccc2)CC1	-0.64
Cc1[nH]c2ccc(OCc3ccccc3)cc2c1C(=O)NN	-3.46

SMILES	Inhibition [%]
C#CCN(C)c1nc(NCCC2CCN(Cc3ccccc3)CC2)c(C#N)cc1C#N.Cl	-7.83
COc1ccc(C2c3ccc4ccccc4c3OC(=NBr)C2(Br)C#N)cc1OC (stereo not drawn)	5.46
Cn1cc(C=O)c2ccccc21	1.96
Cc1nc2c3cnn(-c4ccccc4)c3ncn2n1	0.69
CC#CCN(C)Cc1cc2cc(OCc3ccccc3)ccc2n1C.O=C(O)C(=O)O	-16.39
COc1ccc(C2C(C#N)=C(N)Oc3ccc4ccccc4c32)cc1OC (stereo not drawn)	5.81
COc1ccc2c(c1)cc(CO)n2C	10.29
NOC(=O)C1CCN(Cc2ccccc2)CC1	-3.02
N#Cc1cc(C#N)c(N2CCCC2)nc1N	7.32
COc1cccc(C2c3ccc4ccccc4c3OC(=NBr)C2(Br)C#N)c1 (stereo not drawn)	0.8
COc1ccc(-c2cc(-c3cc4ccccc4nc3Cl)cc(=O)[nH]2)cc1	7.43
Cc1ccc(C2c3ccc4ccccc4c3Oc3nc4c(c(N)c32)CCCC4)cc1.Cl (stereo not drawn)	-7.54
O=C(NNCc1ccco1)c1cc2ccccc2[nH]1	-13.18
COc1ccc2c(c1)cc(CN)n2C	1.13
CNCc1cc2ccccc2n1C.Cl	15.36
N#CC1=C(Cl)Oc2ccc3ccccc3c2C1c1ccccc1 (stereo not drawn)	-0.13
COc1ccc(C2c3c(ccc4ccccc34)OC(=NBr)C2(Br)C#N)cc1 (stereo not drawn)	5.41
C/C(Cc1ccccc1)=N\NC(=O)c1c[nH]c2ccccc12	1.21
CC1(C)OC(=O)C(=Cc2ccc([N+](=O)[O-])cc2)C(=O)O1	-3.37
COc1[nH]c(=O)ccc1C#N	7.22
C#CCN(C)Cc1cc2cc(OCCC3CCN(Cc4ccccc4)CC3)ccc2n1C.Cl	-0.11
O=C(O)/C(=C\c1ccccc1)NC(=O)c1ccccc1	2.34
O=Cc1c(-c2ccc(Br)cc2)nc2ccccn12	-2.16
CC(=O)CCc1c[nH]c2ccccc12	1.93
Cn1c(C(=O)N2CCOCC2)cc2cc(OCCCC3CCN(Cc4ccccc4)CC3)ccc21	9.51
O=C1SC(SCc2ccccc2)=NC1=Cc1ccc2c(c1)OCO2	3.86

SMILES	Inhibition [%]
C=C1CN(C)c2c(C#N)cc(C#N)c(=N)n21	6.5
N#Cc1cc(C#N)c(NCCO)nc1N	7.07
CCOC(=O)C1=C(C)OC(N)=C(C#N)C1c1ccc(OC)cc1 (stereo not drawn)	-3.58
CCC(CC)NNC(=O)c1cc2ccccc2n1C	6.76
N#CCC(=C(C#N)C#N)c1ccccc1	-2.63
CC(=O)Oc1cccc(C=C2N=C(c3ccccc3)OC2=O)c1	12.29
Clc1ccc(-c2cn3ccccc3n2)cc1	4.91
O=C(N/N=C/c1c[nH]c2ccccc12)c1ccco1	3.07
Cc1ccc2nc(Cl)c(/C=N/C(C)(C)C)cc2c1	11.21
Cc1ccc2[nH]c(=O)c(C=O)cc2c1	9.57
CCOC(=O)c1cc2cc(OC)ccc2n1C	-6.47
OCc1cc2ccccc2[nH]1	-4.62
Br.C#CCNCC	4.5
Cc1ccc(C2C(C#N)=C(N)Oc3c2ccc2ccccc32)cc1 (stereo not drawn)	-13.43
CCOC(=O)C1=C(C)Nc2nc3c(c(N)c2C1c1cccc(OC)c1)CCCC3 (stereo not drawn)	11.14
Nc1c2c(nc3c1C(c1ccc(O)cc1)c1c(ccc4ccccc14)O3)CCCC2 (stereo not drawn)	-2.52
O=C(NNC(Cc1ccccc1)Cc1ccccc1)c1cc2ccccc2[nH]1	-9.13
CCOC(=O)c1c(C)nc(/N=N/c2nc(C)c(C(=O)OCC)c(-c3ccccc3)c2C#N)c(C#N)c1-c1ccccc1	-5.12
Cc1nn(-c2ccccc2)c2nc(C)n3nc(-c4ccccc4)nc3c12	7.64
CCOC(=O)c1cc2c(N)c3c(nc2nc1C)CCCC3	14.51
N#CC1=C(Cl)Oc2c(ccc3ccccc23)C1c1ccccc1[N+](=O)[O-] (stereo not drawn)	-8.55
C#CCN(C)c1nc(NCC2CCN(Cc3ccccc3)CC2)c(C#N)c(-c2ccccc2)c1C#N.Cl	-17.77
COc1ccc(-c2cc(-c3cc4ccc(OC)cc4nc3Cl)cc(=O)[nH]2)cc1	-1.26
C#CCN(C)c1nc(OC)c(C#N)c(-c2ccccc2)c1C#N	9.35
Cn1c(CO)cc2cc(OCCCC3CCN(Cc4ccccc4)CC3)ccc21	3.04
